# According to the supplement of paper PMC8728848:
# The list shows a part of the results.
# B1: Gal 4 (Homo sapiens), Q8K419 (protein)
# chain: MAYVPAPGYQPTYNPTLPYKRPIPGGLSVGMSVYIQGMAKENMRRFHVNFAVGQDDGADVAFHFNPRFDGWDKVVFNTMQSGQWGKEEKKKSMPFQKGKHFELVFMVMPEHYKVVVNGNSFYEYGHRLPVQMVTHLQVDGDLELQSINFLGGQPAAAPYPGAMTIPAYPAGSPGYNPPQMNTLPVMTGPPVFNPRVPYVGALQGGLTVRRTIIIKGYVLPTARNFVINFKVGSSGDIALHLNPRIGDSVVRNSFMNGSWGAEERKVAYNPFGPGQFFDLSIRCGMDRFKVFANGQHLFDFSHRFQAFQMVDTLEINGDITLSYVQI
# Columns and labels:
# Assay in all cases: glycan array binding signal (z-score within array); higher = stronger binding
# Settings in all cases: glycan notation: IUPAC condensed, linker removed
# Fuc(a1-2)Gal = target: Fuc(a1-2)Gal
# In short: (§1)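 The binding signal is a Z-score computed within each array. Data were drawn from 3228 arrays in the Consortium for Functional Glycomics database, restricted to those with a known protein sequence. Scores were averaged over arrays of the same protein sequence at different concentrations or buffers, and over linkers, and negative values can be taken as non-binding.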
# Fuc(a1-2)Gal(b1-3)GalNAc = target: Fuc(a1-2)Gal(b1-3)GalNAc
# In short: as §1
# [1] = target: Fuc(a1-2)Gal(b1-3)GalNAc(a1-3)[Fuc(a1-2)]Gal(b1-4)Glc
# In short: as §1
# [2] = target: Fuc(a1-2)Gal(b1-3)GalNAc(a1-3)[Fuc(a1-2)]Gal(b1-4)GlcNAc
# In short: as §1
# [3] = target: Fuc(a1-2)Gal(b1-3)GalNAc(b1-3)Gal
# In short: as §1
# [4] = target: Fuc(a1-2)Gal(b1-3)GalNAc(b1-3)Gal(a1-4)Gal(b1-4)Glc
# In short: as §1
# [5] = target: Fuc(a1-2)Gal(b1-3)GalNAc(b1-4)[Neu5Ac(a2-3)]Gal(b1-4)Glc
# In short: as §1
# Fuc(a1-2)Gal(b1-3)GlcNAc = target: Fuc(a1-2)Gal(b1-3)GlcNAc
# In short: as §1
# [6] = target: Fuc(a1-2)Gal(b1-3)GlcNAc(b1-2)Man(a1-3)[Fuc(a1-2)Gal(b1-3)GlcNAc(b1-2)Man(a1-6)]Man(b1-4)GlcNAc(b1-4)GlcNAc
# In short: as §1
# [7] = target: Fuc(a1-2)Gal(b1-3)GlcNAc(b1-2)Man(a1-3)[Fuc(a1-2)Gal(b1-3)GlcNAc(b1-2)Man(a1-6)]Man(b1-4)GlcNAc(b1-4)[Fuc(a1-6)]GlcNAc
# In short: as §1
# [8] = target: Fuc(a1-2)Gal(b1-3)GlcNAc(b1-3)Gal(b1-4)Glc
# In short: as §1
# [9] = target: Fuc(a1-2)Gal(b1-3)GlcNAc(b1-3)GalNAc
# In short: as §1
# [10] = target: Fuc(a1-2)Gal(b1-3)GlcNAc(b1-3)[Fuc(a1-2)Gal(b1-3)GlcNAc(b1-6)]GalNAc
# In short: as §1
# [11] = target: Fuc(a1-2)Gal(b1-3)GlcNAc(b1-3)[Fuc(a1-3)[Gal(b1-4)]GlcNAc(b1-6)]Gal(b1-4)Glc
# In short: as §1
# [12] = target: Fuc(a1-2)Gal(b1-3)GlcNAc(b1-3)[Gal(b1-4)GlcNAc(b1-6)]Gal(b1-4)Glc
# In short: as §1
# [13] = target: Fuc(a1-2)Gal(b1-3)GlcNAc(b1-3)[Neu5Ac(a2-6)Gal(b1-4)GlcNAc(b1-6)]Gal(b1-4)Glc
# In short: as §1
# [14] = target: Fuc(a1-2)Gal(b1-3)GlcNAc6S
# In short: as §1
# [15] = target: Fuc(a1-2)Gal(b1-3)[Fuc(a1-4)]GlcNAc
# In short: as §1
# [16] = target: Fuc(a1-2)Gal(b1-3)[Fuc(a1-4)]GlcNAc(b1-2)Man(a1-3)[Fuc(a1-2)Gal(b1-3)[Fuc(a1-4)]GlcNAc(b1-2)Man(a1-6)]Man(b1-4)GlcNAc(b1-4)GlcNAc
# In short: as §1
# [17] = target: Fuc(a1-2)Gal(b1-3)[Fuc(a1-4)]GlcNAc(b1-2)Man(a1-6)[Fuc(a1-2)Gal(b1-3)[Fuc(a1-4)]GlcNAc(b1-2)Man(a1-3)]Man(b1-4)GlcNAc(b1-4)[Fuc(a1-6)]GlcNAc
# In short: as §1
# [18] = target: Fuc(a1-2)Gal(b1-3)[Fuc(a1-4)]GlcNAc(b1-3)[Fuc(a1-3)[Gal(b1-4)]GlcNAc(b1-6)]Gal(b1-4)Glc
# In short: as §1
# [19] = target: Fuc(a1-2)Gal(b1-3)[Fuc(a1-4)]GlcNAc(b1-3)[Gal(b1-4)GlcNAc(b1-6)]Gal(b1-4)Glc
# In short: as §1
# Fuc(a1-2)Gal(b1-4)Glc = target: Fuc(a1-2)Gal(b1-4)Glc
# In short: as §1
# Fuc(a1-2)Gal(b1-4)Glc6S = target: Fuc(a1-2)Gal(b1-4)Glc6S
# In short: as §1
# Fuc(a1-2)Gal(b1-4)GlcNAc = target: Fuc(a1-2)Gal(b1-4)GlcNAc
# In short: as §1
# [20] = target: Fuc(a1-2)Gal(b1-4)GlcNAc(b1-2)Man
# In short: as §1
# [21] = target: Fuc(a1-2)Gal(b1-4)GlcNAc(b1-2)Man(a1-3)[Fuc(a1-2)Gal(b1-4)GlcNAc(b1-2)Man(a1-6)]Man(b1-4)GlcNAc(b1-4)GlcNAc
# In short: as §1
# [22] = target: Fuc(a1-2)Gal(b1-4)GlcNAc(b1-2)Man(a1-3)[Fuc(a1-2)Gal(b1-4)GlcNAc(b1-2)Man(a1-6)]Man(b1-4)GlcNAc(b1-4)[Fuc(a1-6)]GlcNAc
# In short: as §1
# [23] = target: Fuc(a1-2)Gal(b1-4)GlcNAc(b1-2)[Fuc(a1-2)Gal(b1-4)GlcNAc(b1-4)]Man(a1-3)[Fuc(a1-2)Gal(b1-4)GlcNAc(b1-2)Man(a1-6)]Man(b1-4)GlcNAc(b1-4)GlcNAc
# In short: as §1
# [24] = target: Fuc(a1-2)Gal(b1-4)GlcNAc(b1-3)Gal(b1-4)GlcNAc
# In short: as §1
# [25] = target: Fuc(a1-2)Gal(b1-4)GlcNAc(b1-3)Gal(b1-4)GlcNAc(b1-3)Gal(b1-4)GlcNAc
# In short: as §1
# [26] = target: Fuc(a1-2)Gal(b1-4)GlcNAc(b1-3)GalNAc
# In short: as §1
# [27] = target: Fuc(a1-2)Gal(b1-4)GlcNAc(b1-3)[Fuc(a1-2)Gal(b1-4)GlcNAc(b1-6)]GalNAc
# In short: as §1
# [28] = target: Fuc(a1-2)Gal(b1-4)GlcNAc(b1-6)GalNAc
# In short: as §1
# [29] = target: Fuc(a1-2)Gal(b1-4)GlcNAc6S
# In short: as §1
# [30] = target: Fuc(a1-2)Gal(b1-4)[Fuc(a1-3)]GlcNAc
# In short: as §1
# [31] = target: Fuc(a1-2)Gal(b1-4)[Fuc(a1-3)]GlcNAc(b1-2)Man(a1-3)[Fuc(a1-2)Gal(b1-4)[Fuc(a1-3)]GlcNAc(b1-2)Man(a1-6)]Man(b1-4)GlcNAc(b1-4)GlcNAc
# In short: as §1
# [32] = target: Fuc(a1-2)Gal(b1-4)[Fuc(a1-3)]GlcNAc(b1-2)Man(a1-6)[Fuc(a1-2)Gal(b1-4)[Fuc(a1-3)]GlcNAc(b1-2)Man(a1-3)]Man(b1-4)GlcNAc(b1-4)[Fuc(a1-6)]GlcNAc
# In short: as §1
# [33] = target: Fuc(a1-2)Gal(b1-4)[Fuc(a1-3)]GlcNAc(b1-2)[Fuc(a1-2)Gal(b1-4)[Fuc(a1-3)]GlcNAc(b1-4)]Man(a1-3)[Fuc(a1-2)Gal(b1-4)[Fuc(a1-3)]GlcNAc(b1-2)Man(a1-6)]Man(b1-4)GlcNAc(b1-4)GlcNAc
# In short: as §1
# [34] = target: Fuc(a1-2)Gal(b1-4)[Fuc(a1-3)]GlcNAc(b1-3)Gal(b1-4)[Fuc(a1-3)]GlcNAc
# In short: as §1
# [35] = target: Fuc(a1-2)Gal(b1-4)[Fuc(a1-3)]GlcNAc(b1-3)Gal(b1-4)[Fuc(a1-3)]GlcNAc(b1-3)Gal(b1-4)[Fuc(a1-3)]GlcNAc
# In short: as §1
# [36] = target: Fuc(a1-2)Gal(b1-4)[Fuc(a1-3)]GlcNAc(b1-3)GalNAc
# In short: as §1
# [37] = target: Fuc(a1-2)Gal(b1-4)[Fuc(a1-3)]GlcNAc(b1-3)[Neu5Ac(a2-6)Gal(b1-4)GlcNAc(b1-6)]Gal(b1-4)Glc
# In short: as §1
# [38] = target: Fuc(a1-2)Gal6S(b1-3)GlcNAc
# In short: as §1
# [39] = target: Fuc(a1-2)Gal6S(b1-3)GlcNAc6S
# In short: as §1
binder,measurement,setting,value
B1,glycan array binding signal (z-score),Fuc(a1-2)Gal,-0.2
same,glycan array binding signal (z-score),Fuc(a1-2)Gal(b1-3)GalNAc,-0.181
same,glycan array binding signal (z-score),[1],0.743
same,glycan array binding signal (z-score),[2],0.009
same,glycan array binding signal (z-score),[3],-0.205
same,glycan array binding signal (z-score),[4],-0.201
same,glycan array binding signal (z-score),[5],-0.203
same,glycan array binding signal (z-score),Fuc(a1-2)Gal(b1-3)GlcNAc,0.279
same,glycan array binding signal (z-score),[6],0.028
same,glycan array binding signal (z-score),[7],-0.154
same,glycan array binding signal (z-score),[8],1.28
same,glycan array binding signal (z-score),[9],-0.021
same,glycan array binding signal (z-score),[10],-0.088
same,glycan array binding signal (z-score),[11],-0.103
same,glycan array binding signal (z-score),[12],0.061
same,glycan array binding signal (z-score),[13],-0.035
same,glycan array binding signal (z-score),[14],1.3
same,glycan array binding signal (z-score),[15],-0.201
same,glycan array binding signal (z-score),[16],-0.173
same,glycan array binding signal (z-score),[17],-0.201
same,glycan array binding signal (z-score),[18],-0.197
same,glycan array binding signal (z-score),[19],-0.182
same,glycan array binding signal (z-score),Fuc(a1-2)Gal(b1-4)Glc,0.174
same,glycan array binding signal (z-score),Fuc(a1-2)Gal(b1-4)Glc6S,0.599
same,glycan array binding signal (z-score),Fuc(a1-2)Gal(b1-4)GlcNAc,-0.168
same,glycan array binding signal (z-score),[20],-0.211
same,glycan array binding signal (z-score),[21],-0.143
same,glycan array binding signal (z-score),[22],-0.202
same,glycan array binding signal (z-score),[23],-0.243
same,glycan array binding signal (z-score),[24],-0.032
same,glycan array binding signal (z-score),[25],-0.084
same,glycan array binding signal (z-score),[26],-0.199
same,glycan array binding signal (z-score),[27],-0.189
same,glycan array binding signal (z-score),[28],-0.185
same,glycan array binding signal (z-score),[29],-0.086
same,glycan array binding signal (z-score),[30],-0.201
same,glycan array binding signal (z-score),[31],-0.14
same,glycan array binding signal (z-score),[32],-0.207
same,glycan array binding signal (z-score),[33],-0.149
same,glycan array binding signal (z-score),[34],-0.203
same,glycan array binding signal (z-score),[35],-0.202
same,glycan array binding signal (z-score),[36],-0.182
same,glycan array binding signal (z-score),[37],-0.21
same,glycan array binding signal (z-score),[38],-0.214
same,glycan array binding signal (z-score),[39],-0.183
